Measured values reported in PubChem BioAssay AID1745853 (National Center for Advancing Translational Sciences (NCATS), 2022).
Some of the results follow. Further columns of the screen follow, without active or inactive calls.

Tests used:
Experiment in all cases: Primary Screen for Target Class Profiling of Small Molecule Inhibitors of Methyltransferases
[1] = biological target: Glycine N-methyltransferase (Homo sapiens) (UniProt Q14749); conditions: purified enzyme, MTase-Glo SAH luminescence; measured here: GNMT inhibition; at 40 µM; stronger effect = lower value
In short: (§1)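 Each enzyme was reacted with SAM and its substrate, with compounds tested once at 40 uM; SAH formed was read by MTase-Glo luminescence.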

[2] = biological target: Guanidinoacetate N-methyltransferase (Homo sapiens) (UniProt Q14353); conditions: purified enzyme, MTase-Glo SAH luminescence; measured here: GAMT inhibition; at 40 µM; stronger effect = lower value
In short: as §1

[3] = biological target: Histamine N-methyltransferase (Homo sapiens) (UniProt P50135); conditions: purified enzyme, MTase-Glo SAH luminescence; measured here: HNMT inhibition; at 40 µM; stronger effect = lower value
In short: as §1

[4] = biological target: Nicotinamide N-methyltransferase (Homo sapiens) (UniProt P40261); conditions: purified enzyme, MTase-Glo SAH luminescence; measured here: NNMT inhibition; at 40 µM; stronger effect = lower value
In short: as §1

[5] = biological target: Phenylethanolamine N-methyltransferase (Homo sapiens) (UniProt P11086); conditions: purified enzyme, MTase-Glo SAH luminescence; measured here: PNMT inhibition; at 40 µM; stronger effect = lower value
In short: as §1
% is set by controls: 0 for no effect and ±100 for the full control effect.

SMILES | activity change, negative = inhibition [1] [%] | activity change, negative = inhibition [2] [%] | activity change, negative = inhibition [3] [%] | activity change, negative = inhibition [4] [%] | activity change, negative = inhibition [5] [%]
COc1ccc(C(=O)N2CC[C@H]3NC(=O)N(c4ccc(Oc5ccccc5)cc4)C(=O)[C@H]32)cc1 | 5.32 | 1.87 | -0.064 | 3.81 | -18.2
CSc1ccc(CCNC(=O)c2cc3n(n2)CC(C)(C(=O)NC2CCCCC2)N(C)C3=O)cc1 (stereo unspecified) | -0.848 | -4.04 | 4.09 | -4.29 | -5.17
Cc1ccc(C(=O)Cn2nc3n(CC(C)C)c(=O)c4ccccc4n3c2=O)cc1 | 0.793 | 0 | 5.25 | 2.07 | 3.72
O=C(/C=C/c1ccc(O)cc1)O[C@H]1[C@H](OC2CCCCC2O)O[C@H](CO)[C@@H](O)[C@@H]1O (stereo partly specified) | 0 | 0.055 | 2.02 | -11.6 | 3.75
CC(=O)NCCc1ncc(C)n1C1CCC1 | 0.526 | -1.35 | -46.2 | -4.94 | -0.349
COc1ccc(CCC(=O)N2CCCCCC2CN2CCC(OC)CC2)cc1 (stereo unspecified) | -5.6 | -6.33 | -5.11 | -9.94 | -6.39
O=C1CN(Cc2cccc(F)c2)S(=O)(=O)c2ccccc2N1Cc1ccc(Cl)cc1 | 16.6 | 2.88 | 9.83 | 7.69 | 8.81
COc1ccc(-c2cc(C(=O)N3CCOC(c4ccc(F)cc4)C3)[nH]n2)cc1 (stereo unspecified) | -15 | -0.083 | -1.94 | -1.74 | 1.25
Cc1ccc(Cl)cc1N1C(=O)c2cc3sccc3n2CC1(C)C(=O)NC1CCCCC1 (stereo unspecified) | -3.46 | 1.7 | -1.39 | 5.29 | -5.76
O=C1OC(c2ccc(O)cc2)C(O)=C1Cc1ccccc1 (stereo unspecified) | -4.61 | 2.78 | 5.57 | -11.9 | 1.48
COc1ccccc1C1NC(C(=O)O)Cc2c1[nH]c1ccccc21 (stereo unspecified) | -2.81 | 4.64 | -4.77 | -3.6 | -0.182
Cc1ccccc1CN1CCC(CN(Cc2cccnc2)C(=O)Cc2ccccc2)CC1 | -8.02 | -6.8 | -16.6 | -13.1 | -11.2
C#Cc1cccc(C(=O)N2CCC(Cc3ccc(Cl)cc3)(C(=O)OCC)CC2)c1 | -6.21 | -7.72 | -3.49 | -17.5 | 2.98
Cc1ccc(Cn2c(=O)c3ccccc3n3c(=O)n(Cc4ccc(F)cc4)nc23)cc1 | 6.4 | 0 | 11.1 | 7.23 | 6.75
CC1CCC(NC(=O)C2(C)Cn3c(ccc3-c3ccccc3)C(=O)N2CCC2=CCCCC2)CC1 (stereo unspecified) | 8.87 | 0 | 6.01 | 6.32 | 2.82
CCCN(C)C(=O)Cn1c(C)ccc(NS(=O)(=O)c2ccc(C)cc2)c1=O | -4.56 | -5.88 | -3.27 | -8.06 | -20.6
OC[C@H]1O[C@@H](OC/C=C/c2ccc(O)cc2)[C@H](O)[C@@H](O)[C@@H]1O | -5.66 | -16.2 | -0.123 | -20.5 | -11.2
COc1ccc(-c2cc3n(n2)CC(C)(C(=O)NC2CCCCC2)N(C2CCCCC2)C3=O)cc1OC (stereo unspecified) | 3.4 | 1.58 | 10.6 | 10.6 | 3.55
CC1(C(=O)NC2CCCCCCC2)Cn2c(ccc2-c2ccco2)C(=O)N1CCCc1ccccc1 (stereo unspecified) | -9.38 | 1.34 | -0.245 | -9.89 | -6.06
Cc1cccc(-c2n[nH]n3c2nc(=O)c2ccc(C(=O)N4CCN(c5ccc(F)cc5)CC4)cc23)c1 | -15.3 | -1.73 | -0.478 | -6.33 | -4.1

SMILES | activity change, negative = inhibition [1] [%] | activity change, negative = inhibition [2] [%] | activity change, negative = inhibition [3] [%] | activity change, negative = inhibition [4] [%] | activity change, negative = inhibition [5] [%]
CC(C)COc1cc(=O)n2c(c1C(=O)NCCCN1CCOCC1)CCCCC2 | -0.155 | -0.805 | 1.54 | 3.4 | -1.75
COc1ccc2c(c1)c(NC(C)=O)c1n2CC(C)(C(=O)NC2CCCC2)N(Cc2ccco2)C1=O (stereo unspecified) | 4.86 | 0 | 11.7 | 13.9 | 4.29
Cc1cc(F)ccc1NC(=O)Cn1c(=O)oc2cc(S(=O)(=O)N3CC(C)CC(C)C3)ccc21 (stereo unspecified) | -2.54 | 1.67 | -5.82 | -5.62 | -5.21
Cc1ccc(C(=O)Cn2nc3n(C)c(=O)c4ccc(C(=O)NC5CCCC5)cc4n3c2=O)cc1 | 0.591 | 4.63 | -1.6 | 5.59 | 0.624
COCCN1C(=O)c2ccc(-c3ccccc3)n2CC1(C)C(=O)NC1CCCCCC1 (stereo unspecified) | 0.896 | 0 | -2.06 | -7.11 | -2.36
O=C1OCC(c2ccccc2)=C1Cc1ccccc1 | -0.405 | 1.08 | 9.46 | -20.3 | -10.9
CCCNC(=O)N[C@@H]1C=C(C(=O)N[C@H](CC(C)C)C(N)=O)C[C@@H](O)[C@@H]1O | -2.98 | -1.25 | 2.2 | 0.543 | -13.1
O=C(O)c1cnc(N2CCCCC2)nc1-c1ccncc1 | -6.84 | -7.84 | -7.45 | -7.51 | -10.7
Cc1nnc([C@@H]2CC(F)(F)CN2C(=O)c2ccoc2)o1 | -8.45 | -6.67 | -3.21 | -18 | -11.3
COc1cccc(CNC(=O)c2cc3n(n2)CC(C)(C(=O)NC2CCCC2)N(C)C3=O)c1OC (stereo unspecified) | -4.46 | -9.64 | 1 | -7.24 | -5.78
O=C(CCc1nnc2ccc(NCCCN3CCCC3=O)nn12)NCc1ccc(F)cc1 | 4.9 | 2.86 | 14.9 | 3.69 | 10.9
CCc1ccc(NC(=O)Cn2nc3n(CCC(C)C)c(=O)c4ccc(C(=O)NC(C)C)cc4n3c2=O)cc1 | 7.54 | 0 | 8.48 | 3.36 | 5.8
CCCn1c(=O)c2ccc(Cl)cc2n2c(=O)n(CC(=O)Nc3cc(OC)cc(OC)c3)nc12 | 3.31 | 0 | 5.67 | -1.65 | 3.11
C=C(C)[C@@H]1CC[C@]2(C)CC[C@]3(C)C(CCC4[C@@]5(C)CC[C@H](O)C(C)(C)C5CC[C@]43C)C12 (stereo partly specified) | 3.53 | 2.06 | 10.7 | -1.99 | 6.89
COc1cccc(C(c2sc3nc(-c4ccco4)nn3c2O)N2CCN(C)CC2)c1 (stereo unspecified) |  | 6.79 |  | -12.5 | -2.76
COc1ccc(-c2nn(-c3ccccc3C)cc2CN2C[C@@H](C)O[C@@H](C)C2)cc1F | -0.766 | 1.46 | -0.224 | 5.35 | 0.183
COCC1CN(C(=O)c2sccc2C)CC12CCOCC2 (stereo unspecified) | -5.28 | 0.59 | 0.867 | -0.854 | -0.523
COc1cccc(N2C(=O)NC(=NC3CCCC3)C23CCCN(C(=O)c2ccc(C)cc2)C3)c1 (stereo unspecified) | -2.06 | 3.13 | 0.144 | 4.83 | 2.99
CCN(Cc1cccc2nonc12)CC1CCCN(CCc2cccc(OC)c2)C1 (stereo unspecified) | -6.46 | -6.22 | -34.7 | -14.6 | -14.2
C#CCN(Cc1nc(-c2ccccc2OCC)oc1C)C1CCCCC1 | -2.68 | -4.68 | -4.39 | -6.29 | -7.42

SMILES | activity change, negative = inhibition [1] [%] | activity change, negative = inhibition [2] [%] | activity change, negative = inhibition [3] [%] | activity change, negative = inhibition [4] [%] | activity change, negative = inhibition [5] [%]
COc1ccc(NC(=O)CCc2nnc3n(Cc4ccc(C)cc4)c(=O)c4ccccc4n23)cc1 | -7.75 | 4.25 | 1.7 | -7.34 | -3.17
CNC(=O)c1cc2n(n1)CC(C)(C(=O)NC1CCCCCC1)N(C)C2=O (stereo unspecified) | 7.28 | 1.32 | 3.44 | 8.19 | 2.58
COC(=O)C1=CN(CC(=O)NC(C)c2ccccc2)S(=O)(=O)N=C1C (stereo unspecified) | -2.54 | -1.15 | 2.3 | -0.368 | -1.36
CC(=O)N1c2ccc(S(=O)(=O)N3CCCC3)cc2CC1C(=O)NCc1c(C)nn(C)c1C (stereo unspecified) | 0.927 | 0 | 7.65 | -1.32 | 1.35
O=C(O)[C@@H]1C[C@H]2C[C@@H](CCc3nn[nH]n3)CC[C@H]2CN1 | -4.41 | -2.49 | 3.15 | -9.95 | -4.8
CC(C)NC(=O)c1ccc2c(=O)n(C)c3nn(CC(=O)Nc4ccccc4)c(=O)n3c2c1 | 6.7 | 4.93 | 9.62 | 2.23 | 8.52
COc1ccccc1CNC(=O)c1ccc2c(=O)n(-c3ccc(F)cc3)c3nnc(C)n3c2c1 | -5.38 | 1.22 | 4.41 | 9.27 | 1.5
Cc1c(C)n(Cc2ccc(-c3ccccc3C(=O)O)cc2)c2ccc(C(=O)N[C@@H](C)c3ccc([N+](=O)[O-])cc3)cc12 | -87 | -7.63 | -3.19 | -39.3 | -17.8
CCOC(=O)c1cc2n(n1)CC(C)(C(=O)NC1CCCCC1)N(c1ccc(C)cc1C)C2=O (stereo unspecified) | -2 | -0.569 | -8.33 | 2.08 | -1.94
CCOc1cc(N2CCC(O)CC2)ccc1Nc1ncc2c(n1)N(C1CCCC1)CCC(=O)N2C | -11.6 | -9.72 | 4 | -35.9 | -11.2
FC(F)(F)c1ccccc1-c1cc(C(F)(F)F)c2nc(C3=NOC4(CCCCC4)C3)[nH]c2c1 | 0.983 | -23.5 | -3.55 | -35.7 | -14.2
CCOC(=O)c1cc2n(n1)CC(C)(C(=O)NCc1ccc(F)cc1)N(Cc1ccccc1OCC)C2=O (stereo unspecified) | 4.95 | 0 | 9.58 | 12 | 6.83
c1ccc2c(c1)CCCC2C1=NCCN1 (stereo unspecified) | 3.68 | 15.1 | -8.37 | -1.36 | 7.34
O=C1O[C@H](C(O)CO)C(=O)C1=O (stereo partly specified) |  | 4.42 |  | -4.23 | 3.9
Cc1cn(CC(=O)N2CC[C@@](C)(O)[C@@H](Cc3ccccc3)C2)c(=O)[nH]c1=O | 1.51 | 1.24 | 3.38 | -1.43 | -0.269
O=S(=O)(c1ccc(Br)cc1)c1nnn2c1nc(NCCc1c[nH]c3ccccc13)c1ccccc12 | 2.37 | 0 | -35.3 | -1.66 | -0.857
COc1ccc2cc3n(c2c1)CC(C)(C(=O)NC1CCCCC1)N(Cc1cccs1)C3=O (stereo unspecified) | 0.989 | 6.23 | 0.875 | -5.56 | -3.45
Cc1nnnn1CCC(=O)Nc1nn(C)c2cccc(N3CCOCC3)c12 | -8.64 | -9.86 | -4.49 | -11.1 | -12.5
CNc1ncnc2c1ncn2[C@@H]1O[C@H](CO)[C@@H](O)[C@H]1O | 88 | 321 | 43.3 | 214 | 50.7
C/C=C(/COC(=O)/C(C)=C/C)C(=O)OC/C=C/c1ccc(OC)cc1 | -2.33 | -2.8 | 5.4 | -15.8 | -0.846
